Test results from the supplement of paper PMC10369915.
The other results are listed elsewhere or left out. Rule as the data show it: active = 3.2 or more and inactive = the rest. Most of these values are background signal.

Experiments:
Test in all cases: enrichment score (SH2-bound / input frequency) (ratio); bacterial display of known human phosphotyrosine sites (pTyr-Var adds point mutants) read by sequencing; higher = stronger binding; tyrosines were phosphorylated by kinases first
Details in all cases: peptide library: pTyr-Var
SHP2 C-SH2 domain E139D = target: SHP2 C-SH2 domain E139D
[1] = target: SHP2 C-SH2 domain wild-type
SHP2 N-SH2 domain L43F = target: SHP2 N-SH2 domain L43F
SHP2 N-SH2 domain T42A = target: SHP2 N-SH2 domain T42A
SHP2 N-SH2 domain T52S = target: SHP2 N-SH2 domain T52S
[2] = target: SHP2 N-SH2 domain wild-type

Measured: enrichment score
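Also: displayed peptides selected on beads carrying the immobilized SH2 domain, with library peptides lacking any tyrosine serving as negative controls.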

KRIKSYNQEND [RPGRIP1L_Y448_L447S]
inactive: SHP2 C-SH2 domain E139D 0.746 | [1] 0.591 | SHP2 N-SH2 domain L43F 0.76 | SHP2 N-SH2 domain T42A 0.966 | SHP2 N-SH2 domain T52S 0.617 | [2] 0.528

LEDPMYDIIRD [RP9_Y142_H137L]
inactive: SHP2 C-SH2 domain E139D 0.596 | [1] 0.705 | SHP2 N-SH2 domain L43F 0.705 | SHP2 N-SH2 domain T42A 0.619 | SHP2 N-SH2 domain T52S 0.851 | [2] 0.658

PEVRRYVLPLN [RPE65_Y368]
inactive: SHP2 C-SH2 domain E139D 1.1 | [1] 1.35 | SHP2 N-SH2 domain L43F 1.36 | SHP2 N-SH2 domain T42A 1.08 | SHP2 N-SH2 domain T52S 1.09 | [2] 1.46

EQSNPYMVLDI [ROCK2_Y1197]
inactive: SHP2 C-SH2 domain E139D 0.758 | [1] 0.865 | SHP2 N-SH2 domain L43F 0.735 | SHP2 N-SH2 domain T42A 1.29 | SHP2 N-SH2 domain T52S 0.72 | [2] 0.924

LAIERYVVVCK [RHO_Y136]
inactive: SHP2 C-SH2 domain E139D 0.763 | [1] 1.24 | SHP2 N-SH2 domain L43F 0.73 | SHP2 N-SH2 domain T42A 0.879 | SHP2 N-SH2 domain T52S 0.803 | [2] 1.06

RLNWIYFKDQT [RS1_Y165_YF]
inactive: SHP2 C-SH2 domain E139D 2.15 | [1] 1.73 | SHP2 N-SH2 domain L43F 1.98 | SHP2 N-SH2 domain T42A 1.61 | SHP2 N-SH2 domain T52S 2.26 | [2] 1.82

SPYAVYRFFTF [RPGRIP1_Y826]
inactive: SHP2 C-SH2 domain E139D 0.469 | [1] 0.794 | SHP2 N-SH2 domain L43F 0.626 | SHP2 N-SH2 domain T42A 0.483 | SHP2 N-SH2 domain T52S 0.523 | [2] 0.738

DSDTDYGSGFP [RNASEH2A_Y206_L202S_YF]
inactive: SHP2 C-SH2 domain E139D 0.44 | [1] 0.442 | SHP2 N-SH2 domain L43F 0.573 | SHP2 N-SH2 domain T42A 0.611 | SHP2 N-SH2 domain T52S 0.381 | [2] 0.481

PRRRFYVVACD [RNASE3_Y134_G130R]
inactive: SHP2 C-SH2 domain E139D 0.194 | [1] 0.183 | SHP2 N-SH2 domain L43F 0.209 | SHP2 N-SH2 domain T42A 0.268 | SHP2 N-SH2 domain T52S 0.259 | [2] 0.26

PMFTKYGNGLL [RPGRIP1L_Y196_S199G]
inactive: SHP2 C-SH2 domain E139D 1.34 | [1] 1.16 | SHP2 N-SH2 domain L43F 0.991 | SHP2 N-SH2 domain T42A 1.18 | SHP2 N-SH2 domain T52S 1.06 | [2] 0.828

SPFAVYRFFTF [RPGRIP1_Y826_YF]
inactive: SHP2 C-SH2 domain E139D 0.592 | [1] 0.499 | SHP2 N-SH2 domain L43F 0.54 | SHP2 N-SH2 domain T42A 0.512 | SHP2 N-SH2 domain T52S 0.546 | [2] 0.489

PYGQWYESHYA [RPS8_Y113_R110G]
inactive: SHP2 C-SH2 domain E139D 0.97 | [1] 0.906 | SHP2 N-SH2 domain L43F 0.656 | SHP2 N-SH2 domain T42A 1 | SHP2 N-SH2 domain T52S 0.789 | [2] 1.46

FGVVGYLAIMF [RNF175_Y155]
inactive: SHP2 C-SH2 domain E139D 2.14 | [1] 2.12 | SHP2 N-SH2 domain L43F 2.14 | SHP2 N-SH2 domain T42A 3 | SHP2 N-SH2 domain T52S 1.8 | [2] 2.44

FLNSIYKSRDE [ROS1_Y2227]
inactive: SHP2 C-SH2 domain E139D 1.4 | [1] 1.39 | SHP2 N-SH2 domain L43F 1.43 | SHP2 N-SH2 domain T42A 0.967 | SHP2 N-SH2 domain T52S 1.65 | [2] 1.27

CDDGKYVFVVT [RPS6KA3_Y488_Y483C_YF]
inactive: SHP2 C-SH2 domain E139D 0.581 | [1] 0.925 | SHP2 N-SH2 domain L43F 0.707 | SHP2 N-SH2 domain T42A 0.737 | SHP2 N-SH2 domain T52S 0.641 | [2] 0.974

VPVNGYQPVPA [ROR2_Y824]
inactive: SHP2 C-SH2 domain E139D 0.516 | [1] 0.636 | SHP2 N-SH2 domain L43F 0.639 | SHP2 N-SH2 domain T42A 0.475 | SHP2 N-SH2 domain T52S 0.609 | [2] 0.881

CKRQFYLFKGK [RSPO4_Y112_YF]
inactive: SHP2 C-SH2 domain E139D 1.34 | [1] 1.17 | SHP2 N-SH2 domain L43F 1.35 | SHP2 N-SH2 domain T42A 1.17 | SHP2 N-SH2 domain T52S 1.29 | [2] 1.3

KIEGVYARDET [RPL35A_Y34]
inactive: SHP2 C-SH2 domain E139D 0.595 | [1] 0.544 | SHP2 N-SH2 domain L43F 0.594 | SHP2 N-SH2 domain T42A 0.543 | SHP2 N-SH2 domain T52S 0.55 | [2] 0.772

DLDTEYGSGFP [RNASEH2A_Y206_D205E_YF]
inactive: SHP2 C-SH2 domain E139D 0.679 | [1] 0.491 | SHP2 N-SH2 domain L43F 0.639 | SHP2 N-SH2 domain T42A 0.588 | SHP2 N-SH2 domain T52S 0.626 | [2] 0.519

DLDTDYGSGYP [RNASEH2A_Y206]
inactive: SHP2 C-SH2 domain E139D 0.472 | [1] 0.518 | SHP2 N-SH2 domain L43F 0.621 | SHP2 N-SH2 domain T42A 0.356 | SHP2 N-SH2 domain T52S 0.544 | [2] 0.448

DENWFYTQAAS [RPS19_Y54_R56Q]
inactive: SHP2 C-SH2 domain E139D 0.883 | [1] 0.807 | SHP2 N-SH2 domain L43F 0.799 | SHP2 N-SH2 domain T42A 0.71 | SHP2 N-SH2 domain T52S 0.777 | [2] 1.02

IDSTPYRQWYE [RPS8_Y109]
inactive: SHP2 C-SH2 domain E139D 0.695 | [1] 0.66 | SHP2 N-SH2 domain L43F 0.803 | SHP2 N-SH2 domain T42A 0.691 | SHP2 N-SH2 domain T52S 0.537 | [2] 0.88

CKRQFYLYKGK [RSPO4_Y112]
inactive: SHP2 C-SH2 domain E139D 0.882 | [1] 0.959 | SHP2 N-SH2 domain L43F 0.716 | SHP2 N-SH2 domain T42A 0.657 | SHP2 N-SH2 domain T52S 0.838 | [2] 0.878

PVVKLYATDGR [RP1_Y199]
inactive: SHP2 C-SH2 domain E139D 0.902 | [1] 1.06 | SHP2 N-SH2 domain L43F 0.79 | SHP2 N-SH2 domain T42A 0.766 | SHP2 N-SH2 domain T52S 0.89 | [2] 0.982

EFGSGYPNDPK [RNASEH2A_Y210_D205E_YF]
inactive: SHP2 C-SH2 domain E139D 0.639 | [1] 0.676 | SHP2 N-SH2 domain L43F 0.469 | SHP2 N-SH2 domain T42A 0.483 | SHP2 N-SH2 domain T52S 0.475 | [2] 0.792

PEVRRCVLPLN [RPE65_Y368_Y368C]
inactive: SHP2 C-SH2 domain E139D 1.01 | [1] 1.35 | SHP2 N-SH2 domain L43F 1.05 | SHP2 N-SH2 domain T42A 0.931 | SHP2 N-SH2 domain T52S 0.979 | [2] 1.2

DENRFYTRAAS [RPS19_Y54_W52R]
inactive: SHP2 C-SH2 domain E139D 0.637 | [1] 0.715 | SHP2 N-SH2 domain L43F 0.699 | SHP2 N-SH2 domain T42A 0.627 | SHP2 N-SH2 domain T52S 0.726 | [2] 0.658

TSNNPYFRDQA [RPGRIP1_Y846_A841T]
inactive: SHP2 C-SH2 domain E139D 0.58 | [1] 0.51 | SHP2 N-SH2 domain L43F 0.41 | SHP2 N-SH2 domain T42A 0.567 | SHP2 N-SH2 domain T52S 0.489 | [2] 0.681

VYAANYYKLLG [ROR2_Y645_D644N]
inactive: SHP2 C-SH2 domain E139D 0.793 | [1] 0.746 | SHP2 N-SH2 domain L43F 0.669 | SHP2 N-SH2 domain T42A 0.727 | SHP2 N-SH2 domain T52S 0.68 | [2] 0.602

LREKVYASLEA [RXRA_Y397]
inactive: SHP2 C-SH2 domain E139D 0.93 | [1] 1.11 | SHP2 N-SH2 domain L43F 0.977 | SHP2 N-SH2 domain T42A 1.06 | SHP2 N-SH2 domain T52S 0.665 | [2] 1.17

LAIELYVVVCK [RHO_Y136_R135L]
inactive: SHP2 C-SH2 domain E139D 1.4 | [1] 0.683 | SHP2 N-SH2 domain L43F 0.741 | SHP2 N-SH2 domain T42A 0.785 | SHP2 N-SH2 domain T52S 0.674 | [2] 1.43

DENCFYTRAAS [RPS19_Y54_W52C]
inactive: SHP2 C-SH2 domain E139D 0.747 | [1] 1.11 | SHP2 N-SH2 domain L43F 0.691 | SHP2 N-SH2 domain T42A 0.603 | SHP2 N-SH2 domain T52S 0.729 | [2] 0.614

LNWIYYKDQTG [RS1_Y166]
inactive: [1] 2.84 | [2] 2.75
active: SHP2 C-SH2 domain E139D 3.73 | SHP2 N-SH2 domain L43F 3.4 | SHP2 N-SH2 domain T42A 3.57 | SHP2 N-SH2 domain T52S 3.87

VPLATYMRIYK [RPL21_Y30]
inactive: SHP2 C-SH2 domain E139D 0.225 | [1] 0.317 | SHP2 N-SH2 domain L43F 0.357 | SHP2 N-SH2 domain T42A 0.277 | SHP2 N-SH2 domain T52S 0.377 | [2] 0.33

NNRVFYGNSDC [RS1_Y177_R182C]
inactive: SHP2 C-SH2 domain E139D 0.84 | [1] 0.737 | SHP2 N-SH2 domain L43F 0.727 | SHP2 N-SH2 domain T42A 0.766 | SHP2 N-SH2 domain T52S 0.686 | [2] 0.805

VPLATYMRIFK [RPL21_Y30_YF]
inactive: SHP2 C-SH2 domain E139D 0.543 | [1] 0.548 | SHP2 N-SH2 domain L43F 0.388 | SHP2 N-SH2 domain T42A 0.367 | SHP2 N-SH2 domain T52S 0.453 | [2] 0.433

TEVRRYVLPLN [RPE65_Y368_P363T]
inactive: SHP2 C-SH2 domain E139D 0.86 | [1] 0.987 | SHP2 N-SH2 domain L43F 0.776 | SHP2 N-SH2 domain T42A 0.693 | SHP2 N-SH2 domain T52S 0.645 | [2] 0.919
